Results taken from publication PMC4336329 (PLoS ONE, 2015).
The whole screen tested about 310,000 compounds, of which about 14,000 (4.5%) showed an effect of 50% or more. The effect is printed as a negative number. This is one part of the list.

The compounds below were run against human ether-à-go-go-related gene (hERG) potassium channel (human, UniProt Q12809) (assay: primary screen, population patch clamp on CHO cells stably expressing hERG).
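Further: peak tail current of the secondary pulse compared with the same well before compound.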

Chain of human ether-à-go-go-related gene (hERG) potassium channel (Q12809 whole entry, looked up): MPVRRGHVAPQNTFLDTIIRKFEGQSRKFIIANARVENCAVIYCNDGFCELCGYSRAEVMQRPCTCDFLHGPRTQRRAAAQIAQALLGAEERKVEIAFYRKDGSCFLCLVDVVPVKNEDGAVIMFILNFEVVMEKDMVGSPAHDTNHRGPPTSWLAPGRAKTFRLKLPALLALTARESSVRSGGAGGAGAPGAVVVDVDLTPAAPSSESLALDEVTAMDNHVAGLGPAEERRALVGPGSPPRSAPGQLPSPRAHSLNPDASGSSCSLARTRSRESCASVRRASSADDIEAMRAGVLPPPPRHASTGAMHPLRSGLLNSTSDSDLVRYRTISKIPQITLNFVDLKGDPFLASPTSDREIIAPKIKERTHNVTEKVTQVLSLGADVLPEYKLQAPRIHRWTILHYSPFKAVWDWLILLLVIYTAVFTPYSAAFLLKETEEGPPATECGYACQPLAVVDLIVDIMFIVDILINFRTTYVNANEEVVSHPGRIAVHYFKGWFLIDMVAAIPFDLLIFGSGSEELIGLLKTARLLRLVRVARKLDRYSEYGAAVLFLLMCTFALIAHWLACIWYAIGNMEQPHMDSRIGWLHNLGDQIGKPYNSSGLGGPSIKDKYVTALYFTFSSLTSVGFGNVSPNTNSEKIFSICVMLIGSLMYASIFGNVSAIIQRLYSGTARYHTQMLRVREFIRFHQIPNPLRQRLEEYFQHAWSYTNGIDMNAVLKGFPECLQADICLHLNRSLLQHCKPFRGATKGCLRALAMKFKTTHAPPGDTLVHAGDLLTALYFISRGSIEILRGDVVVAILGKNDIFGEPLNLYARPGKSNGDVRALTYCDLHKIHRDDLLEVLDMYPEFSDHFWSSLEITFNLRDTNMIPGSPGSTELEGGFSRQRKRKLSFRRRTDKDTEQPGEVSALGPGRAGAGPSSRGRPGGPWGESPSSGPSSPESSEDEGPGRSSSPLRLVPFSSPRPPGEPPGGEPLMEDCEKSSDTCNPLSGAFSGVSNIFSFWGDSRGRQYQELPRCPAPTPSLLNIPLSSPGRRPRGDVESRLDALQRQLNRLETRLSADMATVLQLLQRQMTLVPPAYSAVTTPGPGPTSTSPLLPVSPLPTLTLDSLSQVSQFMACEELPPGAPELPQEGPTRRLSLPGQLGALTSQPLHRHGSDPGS

SMILES	hERG current change (%, negative = inhibition) at 10uM [%]
CS(=O)(=O)c1ccc(-c2nnn(CC(=O)Nc3ccc4c(c3)OCCO4)n2)cc1	11
Cc1cc(NS(=O)(=O)c2ccc(NC(=S)NC(=O)c3ccc(Br)cc3)cc2)no1	-41
Cc1nn(Cc2nnc(SCC(=O)Nc3cccc(C(F)(F)F)c3)n2C)c(C)c1[N+](=O)[O-]	-57.7
COC(=O)C1=C(C(=O)OC)[C@@H]2N(Cc3ccccc3)c3ccccc3[C@@]23C[C@@H](C(=O)OC)N(C(=O)C2CCC2)C3=N1	-3.95
COc1cc(C(c2nnnn2C(C)(C)C)N2CCN(c3nc4ccccc4s3)CC2)ccc1O (stereo not shown)	-28.1
Cc1ccc(/C=N/n2cnc3sc(C)c(C)c3c2=O)o1	6.08
Cc1ccc(S(=O)(=O)N2CCOCC2)cc1C(=O)Nc1ccccc1F	3.51
CCCCNCc1cc(Br)c(OCC(=O)N2CCOCC2)c(OC)c1.Cl	-10.1
CCCc1nnc(NC(=O)CSc2ncn[nH]2)s1	9.49
O=c1[nH]c(O)c(/C=C2\C=Nc3ccc(Br)cc32)[nH]1	15.1
O=S(=O)(Nc1ccc(Cc2ccncc2)cc1)c1cccs1	-41
O=c1c2ccccc2nc(-c2ccco2)n1/N=C/c1ccco1	13.1
Cc1ccc(-c2nn3c(C)nnc3s2)cc1NC(=O)c1ccc(OC(C)C)cc1	-40.7
CCOc1ccccc1CNCCNCC(C)O.Cl (stereo not shown)	16.3
C=CCn1c(-c2ccc(Cl)cc2)cnc1SC(C)C(=O)NC(N)=O (stereo not shown)	-12.1
CCOC(=O)CSc1nnc(CNC(=O)c2ccc(OC)cc2OC)n1-c1ccc(OC)cc1	-50.1
CC(=O)N/C(=C\c1ccccc1)C(=O)OCc1ccccc1	11.3
O=C1C(c2ccccc2)SC(=Nc2ccccc2)N1S(=O)(=O)c1ccccc1 (stereo not shown)	6.8
O=C(NCC1CCCCC1)c1cc([N+](=O)[O-])ccc1Cl	12.8
Cc1nc(N)sc1-c1csc(Nc2cccc(C(=O)O)c2)n1	7.92
O=C(COC(=O)C1CCN(C(=O)c2ccc(Cl)cc2)CC1)c1ccco1	-26.2
Cc1cc(OCc2cc(C(=O)N(C)C(C)c3ccccn3)no2)cc(C)c1Cl (stereo not shown)	4.06

SMILES	hERG current change (%, negative = inhibition) at 10uM [%]
CC(=O)Nc1ccc(NC(=O)C(C)Sc2nnc(-c3cccs3)o2)cc1 (stereo not shown)	23.6
O=C(Cc1ccc(Cl)cc1)NCC(=O)N1CCCC1	2.15
CCOC(=O)/C(C#N)=C\c1c(OCC)n(CC)c2ccccc12	0.319
CCc1ccc(NC(=S)NC(=O)c2c(-c3ccccc3Cl)noc2C)cc1	8.26
c1ccc(-c2ccc(C3=Nn4c(nnc4-c4cccs4)SC3)cc2)cc1	-5.67
O=[N+]([O-])c1ccc(N=Nc2ncc[nH]2)cc1	9.64
O=C(CSc1ccccn1)Nc1nc2c(ccc3ccccc32)s1	8.38
CCOC(=O)NC(=S)Nc1c(C)n(C)n(-c2ccccc2)c1=O	1.46
Cc1cc(NC(=O)c2cccc(S(=O)(=O)N3CCC(C)CC3)c2)no1	0.978
O=C(NCCc1cccc(Cl)c1)C1CCC(=O)N(Cc2ccc(Cl)cc2)C1 (stereo not shown)	-52.3
COc1ccc(OC)c(C2C=C(c3ccc(C)c(C)c3)Nc3nnnn32)c1 (stereo not shown)	-2.07
Cc1ccc(Cl)cc1NC(=O)Nc1cccs1	23.3
CCOc1ccccc1CNn1nnnc1N	30.5
COC(=O)c1cc(COC(=O)c2nc3nc(C)cc(C)n3n2)oc1C	8.71
Cc1ccccc1OCc1csc(N)n1	2.81
Cc1ccc(NC(=O)c2ccc(NCCN)c([N+](=O)[O-])c2)cc1Cl	-14.3
COc1ccc(/C=C(\C#N)C(=O)OCC(=O)Nc2ccc(-c3nc4ccc(C)cc4s3)cc2)cc1	2.04
Cc1ccccc1C(=O)NNC(=O)CSc1nc(-c2ccccc2)cc(=O)[nH]1	7.8
CCCN(CCC)c1nc(Cl)nc(NCCN2CCOCC2)n1	-13.2
O=C(O)C1CCC(N2C(=O)c3cccc([N+](=O)[O-])c3C2=O)CC1 (stereo not shown)	19
Cn1c(COc2ccc(Cl)cc2Cl)nnc1SCC(=O)NCC1CCCO1 (stereo not shown)	-20.9
